# From the supplement of paper PMC8728848
# Some of the results follow.
# Experiments:
# Assay in all cases: glycan array binding signal (z-score within array); higher = stronger binding
# Conditions in all cases: glycan notation: IUPAC condensed, linker removed
# Gal3S6S(b1-4)GlcNAc = target: Gal3S6S(b1-4)GlcNAc
# Outline: (§1)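 Arrays were curated from the Consortium for Functional Glycomics database, 3228 in total, and kept only where the protein sequence was available. Binding is expressed as a within-array Z-score. This score was averaged across arrays of the same protein sequence at different concentrations or buffers and across linkers, and negative values can be read as non-binding.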
# Gal3S6S(b1-4)GlcNAc6S = target: Gal3S6S(b1-4)GlcNAc6S
# Outline: as §1
# Gal4S(b1-4)GlcNAc = target: Gal4S(b1-4)GlcNAc
# Outline: as §1
# Gal4S6S(b1-4)GlcNAc = target: Gal4S6S(b1-4)GlcNAc
# Outline: as §1
# Gal6P(b1-4)GlcNAc = target: Gal6P(b1-4)GlcNAc
# Outline: as §1
# Gal6S(b1-3)GlcNAc = target: Gal6S(b1-3)GlcNAc
# Outline: as §1
# Gal6S(b1-3)GlcNAc6S = target: Gal6S(b1-3)GlcNAc6S
# Outline: as §1
# Gal6S(b1-4)Glc = target: Gal6S(b1-4)Glc
# Outline: as §1
# Gal6S(b1-4)Glc6S = target: Gal6S(b1-4)Glc6S
# Outline: as §1
# Gal6S(b1-4)GlcNAc = target: Gal6S(b1-4)GlcNAc
# Outline: as §1
# Gal6S(b1-4)GlcNAc6S = target: Gal6S(b1-4)GlcNAc6S
# Outline: as §1
# GalNAc(a1-3)Gal = target: GalNAc(a1-3)Gal
# Outline: as §1
# GalNAc(a1-3)GalNAc = target: GalNAc(a1-3)GalNAc
# Outline: as §1
# [1] = target: GalNAc(a1-3)GalNAc(b1-3)Gal(a1-4)Gal(b1-4)Glc
# Outline: as §1
# [2] = target: GalNAc(a1-3)GalNAc(b1-3)Gal(a1-4)Gal(b1-4)GlcNAc
# Outline: as §1
# GalNAc(b1-3)Gal = target: GalNAc(b1-3)Gal
# Outline: as §1
# [3] = target: GalNAc(b1-3)Gal(a1-4)Gal(b1-4)GlcNAc
# Outline: as §1
# [4] = target: GalNAc(b1-3)Gal(a1-4)Gal(b1-4)GlcNAc(b1-3)Gal(b1-4)Glc
# Outline: as §1
# [5] = target: GalNAc(b1-3)Gal(a1-6)Gal(b1-4)Glc
# Outline: as §1
# GalNAc(b1-3)GalNAc = target: GalNAc(b1-3)GalNAc
# Outline: as §1
# GalNAc(b1-3)GlcNAc = target: GalNAc(b1-3)GlcNAc
# Outline: as §1
# GalNAc(b1-4)Gal(b1-4)Glc = target: GalNAc(b1-4)Gal(b1-4)Glc
# Outline: as §1
# GalNAc(b1-4)GlcNAc = target: GalNAc(b1-4)GlcNAc
# Outline: as §1
# [6] = target: GalNAc(b1-4)GlcNAc(b1-2)Man
# Outline: as §1
# [7] = target: GalNAc(b1-4)GlcNAc(b1-2)Man(a1-3)[GalNAc(b1-4)GlcNAc(b1-2)Man(a1-6)]Man(b1-4)GlcNAc(b1-4)GlcNAc
# Outline: as §1
# [8] = target: GalNAc(b1-4)GlcNAc(b1-3)GalNAc(b1-4)GlcNAc
# Outline: as §1
# GalNAc(b1-4)GlcNAc6S = target: GalNAc(b1-4)GlcNAc6S
# Outline: as §1
# GalNAc(b1-6)GalNAc = target: GalNAc(b1-6)GalNAc
# Outline: as §1
# GalNAc3S(b1-4)GlcNAc = target: GalNAc3S(b1-4)GlcNAc
# Outline: as §1
# GalNAc3S(b1-4)GlcNAc3S = target: GalNAc3S(b1-4)GlcNAc3S
# Outline: as §1
# [9] = target: GalNAc3S(b1-4)[Fuc(a1-3)]GlcNAc
# Outline: as §1
# GalNAc4S6S(b1-4)GlcNAc = target: GalNAc4S6S(b1-4)GlcNAc
# Outline: as §1
# GalNAc6S(b1-4)GlcNAc = target: GalNAc6S(b1-4)GlcNAc
# Outline: as §1
# Glc(a1-4)Glc = target: Glc(a1-4)Glc
# Outline: as §1
# [10] = target: Glc(a1-4)Glc(a1-4)Glc(a1-4)Glc
# Outline: as §1
# Glc(a1-6)Glc(a1-6)Glc = target: Glc(a1-6)Glc(a1-6)Glc
# Outline: as §1
# [11] = target: Glc(a1-6)Glc(a1-6)Glc(a1-6)Glc
# Outline: as §1
# Glc(b1-4)Glc = target: Glc(b1-4)Glc
# Outline: as §1
binder,measurement,setting,value
Cohesin-marm-DC-ASGPR-CRD (protein) LDITSHHHHHHDDLDAVRIKVDTVNAKPGDTVRIPVRFSGIPSKGIANCDFVYSYDPNVLEIIEIEPGDIIVDPNPDKSFDTAVYPDRKIIVFLFAEDSGTGAYAITKDGVFATIVAKVKEGAPNGLSVIKFVEVGGFANNDLVEQKTQFFDGGVNVGDTTEPATPTTPVTTPTTTDDLDAASCPINWVEHQGSCYWFSRSGKTWPEAERYCQLENTHLVVINSREEQNFVQAHLGSAYTWMGLSDPEGVWKWVDGTDYSSGFQNWKPGQPDDWQGHGLGGGEDCAHFHPDGRWNDDVCQRSYHWVCEAGLTQASQDSH,glycan array binding signal (z-score),Gal3S6S(b1-4)GlcNAc,-0.378
same,glycan array binding signal (z-score),Gal3S6S(b1-4)GlcNAc6S,-0.314
same,glycan array binding signal (z-score),Gal4S(b1-4)GlcNAc,-0.444
same,glycan array binding signal (z-score),Gal4S6S(b1-4)GlcNAc,-0.448
same,glycan array binding signal (z-score),Gal6P(b1-4)GlcNAc,-0.452
same,glycan array binding signal (z-score),Gal6S(b1-3)GlcNAc,-0.379
same,glycan array binding signal (z-score),Gal6S(b1-3)GlcNAc6S,-0.376
same,glycan array binding signal (z-score),Gal6S(b1-4)Glc,-0.365
same,glycan array binding signal (z-score),Gal6S(b1-4)Glc6S,-0.365
same,glycan array binding signal (z-score),Gal6S(b1-4)GlcNAc,-0.404
same,glycan array binding signal (z-score),Gal6S(b1-4)GlcNAc6S,-0.421
same,glycan array binding signal (z-score),GalNAc(a1-3)Gal,2.89
same,glycan array binding signal (z-score),GalNAc(a1-3)GalNAc,2.55
same,glycan array binding signal (z-score),[1],2.34
same,glycan array binding signal (z-score),[2],2.78
same,glycan array binding signal (z-score),GalNAc(b1-3)Gal,2.73
same,glycan array binding signal (z-score),[3],2.53
same,glycan array binding signal (z-score),[4],2.61
same,glycan array binding signal (z-score),[5],2.53
same,glycan array binding signal (z-score),GalNAc(b1-3)GalNAc,-0.393
same,glycan array binding signal (z-score),GalNAc(b1-3)GlcNAc,2.86
same,glycan array binding signal (z-score),GalNAc(b1-4)Gal(b1-4)Glc,-0.246
same,glycan array binding signal (z-score),GalNAc(b1-4)GlcNAc,2.74
same,glycan array binding signal (z-score),[6],2.63
same,glycan array binding signal (z-score),[7],2.7
same,glycan array binding signal (z-score),[8],2.39
same,glycan array binding signal (z-score),GalNAc(b1-4)GlcNAc6S,2.79
same,glycan array binding signal (z-score),GalNAc(b1-6)GalNAc,-0.458
same,glycan array binding signal (z-score),GalNAc3S(b1-4)GlcNAc,-0.449
same,glycan array binding signal (z-score),GalNAc3S(b1-4)GlcNAc3S,-0.445
same,glycan array binding signal (z-score),[9],-0.372
same,glycan array binding signal (z-score),GalNAc4S6S(b1-4)GlcNAc,-0.44
same,glycan array binding signal (z-score),GalNAc6S(b1-4)GlcNAc,3
same,glycan array binding signal (z-score),Glc(a1-4)Glc,-0.324
same,glycan array binding signal (z-score),[10],-0.419
same,glycan array binding signal (z-score),Glc(a1-6)Glc(a1-6)Glc,-0.428
same,glycan array binding signal (z-score),[11],-0.438
same,glycan array binding signal (z-score),Glc(b1-4)Glc,-0.381
